Over roughly 33,000 sequences, “E-score (-0.5 to 0.5)” has its median near -0.043; the highest 2% begin near 0.37. This is one part of the list.
These sequences were tested against T1, Upc2 (UniProt Q12151) (assay: PBM E-score (8-mer binding enrichment) (E-score (-0.5 to 0.5)); higher = stronger / more preferred TF binding; most listed sequences are background and not binding sites). Details: protein concentration: 200 nM; construct: GST-full length.
T1 sequence: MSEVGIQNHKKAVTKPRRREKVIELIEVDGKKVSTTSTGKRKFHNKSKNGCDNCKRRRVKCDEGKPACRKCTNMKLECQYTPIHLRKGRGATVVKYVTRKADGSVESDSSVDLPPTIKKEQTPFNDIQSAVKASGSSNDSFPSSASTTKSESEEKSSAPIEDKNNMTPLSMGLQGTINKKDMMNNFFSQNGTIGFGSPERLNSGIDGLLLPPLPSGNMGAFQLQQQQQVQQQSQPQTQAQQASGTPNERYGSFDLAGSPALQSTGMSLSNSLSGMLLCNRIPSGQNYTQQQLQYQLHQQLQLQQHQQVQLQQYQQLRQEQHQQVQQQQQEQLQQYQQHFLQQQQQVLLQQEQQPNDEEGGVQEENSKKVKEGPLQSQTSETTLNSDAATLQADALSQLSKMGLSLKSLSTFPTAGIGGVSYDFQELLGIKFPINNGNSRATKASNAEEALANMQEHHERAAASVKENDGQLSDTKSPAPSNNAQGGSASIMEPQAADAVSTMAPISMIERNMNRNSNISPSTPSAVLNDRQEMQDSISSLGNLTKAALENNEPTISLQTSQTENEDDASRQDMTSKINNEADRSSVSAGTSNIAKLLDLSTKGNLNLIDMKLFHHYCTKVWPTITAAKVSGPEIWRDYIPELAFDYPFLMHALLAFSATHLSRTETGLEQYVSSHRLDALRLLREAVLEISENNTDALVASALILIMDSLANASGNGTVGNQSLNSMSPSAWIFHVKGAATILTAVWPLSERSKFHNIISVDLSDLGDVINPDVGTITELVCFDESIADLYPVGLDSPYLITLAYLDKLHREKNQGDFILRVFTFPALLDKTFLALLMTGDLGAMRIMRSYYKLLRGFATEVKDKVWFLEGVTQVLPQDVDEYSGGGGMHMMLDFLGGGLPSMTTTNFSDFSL
Outline: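 Bound GST-tagged yeast transcription factors, applied at about 100-200 nM to double-stranded universal all-10-mer Agilent arrays, were detected with fluorescent anti-GST. Scans were normalised with masliner. A modified Wilcoxon-Mann-Whitney statistic, the E-score, was assigned to each ungapped eight-base word pooled with its reverse complement by the Universal PBM Analysis Suite.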

Sequence | PBM E-score
TCGACGCA | -0.0783
CATTAAGC | 0.0328
CTGTCATC | -0.116
GTATATAC | 0.395
AAACTCCG | -0.0818
ACCTTTAA | 0.123
CACTAGCG | -0.212
CCAGGGTA | -0.104
GCGGGCTA | -0.181
GATTACTA | 0.0816
AAACCCCG | -0.0877
ACGAGCAT | 0.335
CCGTACTA | 0.282
CAAGGTCC | -0.0738
AGCTTTCG | 0.0143
GCACAAGA | -0.0394
TCCCGAGA | 0.0475
GTCACCAC | -0.0561
ACCAACGA | 0.103
CTTTGGAC | -0.107
CAAGCCTA | -0.0953
ATTCTCGG | 0.124
ACTAAGAA | -0.0494
AGGAACAA | -0.0237
TACATTGA | -0.165

Sequence | PBM E-score
TATGAGGA | -0.144
AGTTCGGC | -0.00631
ACGTTACG | 0.346
TATCCCAA | 0.0297
ACGACACG | 0.295
GTAACCCA | 0.217
AGACTTAG | -0.263
CATATCAC | 0.0559
ATTGTAGC | 0.00408
AGGTATCA | -0.208
ATCTATCC | -0.21
CCCACTCA | -0.112
CCTAGTTA | -0.143
CATCGTAG | 0.295
ACGCTTAC | 0.111
ACGAGTCC | 0.337
GGCCATAC | 0.164
GGACCAAA | 0.0431
CGTGTAGC | 0.164
CCGAACAG | 0.17
ACTCTAAC | -0.0897
GATGAATC | -0.0918
ACAAAATA | -0.0444
AATTCTTG | -0.0346
AGTCGCAC | 0.204

Sequence | PBM E-score
AGTGAGTG | -0.142
CGATTCCC | -0.0861
AGCCGCCC | -0.123
CTATACTC | 0.0215
CTCGCGGC | -0.0185
GCCAGTGA | -0.304
CGCTGAAC | 0.249
AACGACGC | 0.442
ACTCTCCA | -0.117
ATCCCTTC | -0.0437
CGCCCAAA | -0.0966
CAACCCGC | 0.0141
CTTGAACC | -0.0572
AATATATT | 0.146
TCACAGAA | -0.0814
GACAGCCA | -0.204
CCATAAAA | -0.131
ACAATATG | -0.0983
ACATCACC | -0.127
AACGCCTG | 0.0818
CACTTACG | 0.335
CCTGAAAG | -0.123
AGGCAACG | -0.0576
GATTGGTA | -0.0647
CTTTGTGA | -0.205

Sequence | PBM E-score
CCTTCTCA | -0.115
AGCTTTGA | -0.0856
CGGAAGTC | 0.152
ACCCGGCC | -0.121
AAAGAGTA | -0.162
GCGCGCGC | 0.131
GGCCCTAC | -0.0996
GACCCCTC | -0.255
GACCACAC | -0.0889
AGAAGGCT | -0.268
GGGAGTGA | -0.192
CCTGACCC | -0.181
TACGGTAA | 0.354
CAGCGCTA | 0.0254
CTAACCAA | -0.0886
CAGGGTAC | 0.0183
CAGCCGGC | -0.00215
AACCCGAT | 0.121
CCGTAGTA | -0.105
GGCTTCAA | -0.0553
ATACTGAT | 0.146
GCTGAACA | -0.103
CCTCGAAG | -0.0923
ATAAAGTC | 0.0783
AGGTTATA | 0.14

Sequence | PBM E-score
AGATAAGC | 0.0651
CGTAAGTA | 0.216
CCCAAAGG | -0.169
CTCACATC | -0.0489
AGTAAGCC | -0.155
AAGGTCTG | -0.163
ATTTCGCA | 0.17
CCAATTCG | 0.15
CCTCTTAA | 0.14
CATTGCTA | -0.0342
CCACTACA | -0.18
AGGGAGAA | -0.32
CAACCAAA | -0.00055
AACTCTAC | 0.00393
ACAAGTAG | -0.361
AGGTGTCC | -0.0415
AAGAAAGT | 0.123
GGTCATCA | -0.013
ACTCACGC | 0.0702
CATCGTAA | 0.389
ACTCTATA | 0.0319
GTGCAATA | -0.0436
AAATGCGC | -0.0546
GACCCATA | 0.016
GATAATGA | -0.0247

Sequence | PBM E-score
AACCGTTA | 0.111
AACCGCCG | 0.0841
AACAGGAC | -0.0982
AGACAATG | -0.027
GAGCTACA | -0.311
CATATATA | 0.113
AGGGACCC | -0.16
CCTGAGAC | -0.183
ACGATCGG | 0.295
CGCCGTTC | 0.339
TCCTTTCA | -0.056
AGTAAAGC | -0.0204
ACTCCGTA | 0.29
AGACCAGC | -0.327
CAAGATAA | -0.0557
ATATGTAA | -0.144
ATAATGGG | 0.078
CGGACGAC | -0.21
ATCGACTA | -0.1
TATCAGCA | -0.108
CAAGATGA | -0.177
ACCCAAGG | 0.0128
TAACGGGA | 0.0733
ACGGAACT | 0.0402
AGAGATCA | -0.181

Sequence | PBM E-score
CTGTAATC | -0.0664
ATCGAAAT | -0.0104
CAAGTTCG | 0.0878
AGACGTTC | 0.121
ATGCGCCA | -0.0886
ACCTAAAG | -0.111
GTCAAGAC | -0.383
CCAAACCG | -0.0754
GCTCCGAC | -0.188
ATCTGGGC | -0.188
ATTCTGCA | 0.0977
GCAGTCCA | -0.0795
ATTGTGGG | -0.282
AGCGCGAT | 0.146
CTTATCGC | -0.00093
TGGCACCA | -0.193
GACCGCAC | 0.0252
ACGGTTCC | 0.146
CGTCGGAG | -0.056
GGGCGCCC | -0.0753
CACGTCTC | -0.00795
ATAAACCG | 0.0951
CTAATGCA | -0.0701
ACCCTTTC | -0.133
ACAGACGC | -0.107

Sequence | PBM E-score
GAACGTGA | 0.063
GCCTCGTA | 0.473
CACCTGCA | -0.204
GTAGCCGA | 0.0295
CATGCTAA | -0.2
GACGCTCC | -0.0386
AACCGACC | 0.257
ATGCTGAG | -0.269
CAACGCAG | -0.0855
GAATAACC | 0.0541
GCCTGAAA | -0.045
GCGCACCC | -0.013
ACACACGG | -0.177
CAGGTTTA | 0.0194
ATGAGAAA | -0.0659
TAAGACGA | 0.15
AGCGATGA | 0.0502
AATAAGCC | -0.208
ACTGGTCT | -0.0645
CGCAGTTA | 0.00034
CCGCCTGA | -0.158
ATGAGCAT | -0.144
GAATCACC | 0.0205
GTATCGCA | 0.0755
CGGGACCG | 0.0515

Sequence | PBM E-score
ACTAGACT | 0.0823
AGTGTCAA | -0.184
CAGATATC | -0.185
ACGGTGCC | 0.227
ACAAAGTC | -0.0337
CCGCTGAC | -0.129
AGTGAAAA | -0.129
ACCTAGGT | 0.00316
CCCGCACG | -0.0501
CAGAGTGG | -0.068
AGAAACAG | -0.167
AGACGCCT | -0.109
GATTACCA | -0.0634
AAAGTAGT | -0.0437
CATTAGGG | -0.165
ACGTAGTG | -0.111
TCAATCGA | -0.0272
ATCCCAAA | -0.128
CCAGGCCC | -0.0693
